Experimental data reported in the supplement of paper PMC11283458.
The other results are listed elsewhere or left out. Repeats are few or missing, and single values can be far off.

Tested on: Mef2d microexon (dual-luciferase reporter)
Experiment: delta PSI of alternative exon relative to 0.4% DMSO control (RT-PCR) (percentage points); higher = more exon inclusion
Conditions: concentration: not stated (optimised per compound); Neuro-2a
Procedure: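 Reads PSI of the Mef2d reporter microexon and of endogenous mouse neural alternative exons. dPSI is relative to the 0.4% DMSO control, single replicate.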
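Further: exons read include endogenous Mef2d, Mast2, Ergic3 and Trappc9 microexons plus the longer neural-regulated Zdhhc20, Mgrn1 and Asph cassette exons, alongside the reporter microexon.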

`COc1ccc(C(=O)C=C(C(=O)c2ccccc2)c2ccccc2)cc1CN1CCOCC1` was tested. Which “delta PSI of alternative exon” value did it give?
The value was -3.5.

For `C(=NNc1ccc2ccccc2n1)c1ccccn1`, which “delta PSI of alternative exon” value is on record?
Its value is 1.22.

For `Cn1cc(CNCC2CCN(c3ncc(C(=O)NO)cn3)CC2)c2ccccc21`, which “delta PSI of alternative exon” value is on record?
The value was 14.2.

For `O=C(CCCCCCC(=O)Nc1ccccc1)NO` [Vorinostat], which “delta PSI of alternative exon” value is on record?
The value was 17.3.

`COc1ccc(NC(=O)CSC(=O)c2c(-c3c(Cl)cccc3Cl)noc2C)cc1` was tested. Which “delta PSI of alternative exon” value did it give?
Its value is -11.8.

Which “delta PSI of alternative exon” value does the source give for `CC(=O)Nc1ccc(-c2ccc(NC(C)=O)cc2)cc1` here?
Its value is 0.762.

How did the “delta PSI of alternative exon” value turn out when `Cc1ccc(S(=O)(=O)Nc2ccc3ncccc3c2)cc1` was run?
The value was 12.6.

Which “delta PSI of alternative exon” value does the source give for `CN(C)S(=O)(=O)c1ccc2c(c1)/C(=C/c1cc3c([nH]1)CCCC3)C(=O)N2` here?
Its value is -1.44.

Which “delta PSI of alternative exon” value does the source give for `O=C(Nc1cccc([N+](=O)[O-])c1)C(C(=O)Nc1cccc([N+](=O)[O-])c1)C12CC3CC(CC(C3)C1)C2` here?
The value was 1.51.

For `CCN1C(=CC(=S)Nc2ccccc2)Sc2ccccc21`, which “delta PSI of alternative exon” value is on record?
The value was -1.68.

How did the “delta PSI of alternative exon” value turn out when `O=C(NCCNc1nccc(C(F)(F)F)n1)Nc1ccccc1Cl` was run?
Its value is -34.1.

With `c1ccc(C2=Nc3ccccc3NC(c3ccccc3)C2)cc1` (stereo not given) as the compound, how does the “delta PSI of alternative exon” value read?
Its value is -0.674.

For `O=C(C=c1[nH]c(=O)c(=Cc2ccccc2O)s1)c1cccs1`, which “delta PSI of alternative exon” value is on record?
Its value is -7.79.

For `Cc1cc(NC(=O)Nc2cc(Cl)cc(Cl)c2)on1`, which “delta PSI of alternative exon” value is on record?
Its value is 1.72.

`N#Cc1c(-c2cccs2)oc(-n2cccc2)c1-c1cc(Br)cs1` was tested. Which “delta PSI of alternative exon” value did it give?
Its value is 3.66.

Which “delta PSI of alternative exon” value does the source give for `COc1ccc(C=Cc2nc3ccccc3s2)cc1OC` here?
The value was -1.9.

`N#CC1(C#N)C(C#N)(C#N)C12CCCCC2` was tested. Which “delta PSI of alternative exon” value did it give?
Its value is -4.05.

`CC(/C=C/C(=O)NO)=C\[C@@H](C)C(=O)c1ccc(N(C)C)cc1` [Trichostatin A] was tested. Which “delta PSI of alternative exon” value did it give?
Its value is 16.3.

Which “delta PSI of alternative exon” value does the source give for `O=[N+]([O-])c1ccc(N2CCCN(C(=S)Nc3ccc(Cl)cc3Cl)CC2)nc1` here?
Its value is -4.65.

How did the “delta PSI of alternative exon” value turn out when `CCCNC(=O)Nc1ccc(OC(F)(F)F)cc1` was run?
The value was 1.77.

`C(=C\c1ccccc1)/C(=N/Nc1ccccc1)c1ccccc1` was tested. Which “delta PSI of alternative exon” value did it give?
The value was 1.03.

For `CC1(COc2ccc3c(c2)ncn3-c2ccc3cccc(N4CCC(N)CC4)c3n2)COC1` [Crenolanib], which “delta PSI of alternative exon” value is on record?
The value was 4.84.

With `S=C(NN=Cc1ccccn1)NC1CC2C=CC1C2` (stereo not given) as the compound, how does the “delta PSI of alternative exon” value read?
Its value is 3.22.

`NC(=NOC(=O)c1c(F)cccc1Cl)c1ccc([N+](=O)[O-])o1` was tested. Which “delta PSI of alternative exon” value did it give?
The value was -0.439.

How did the “delta PSI of alternative exon” value turn out when `CC(=O)c1sc(-c2ccccc2)cc1NS(=O)(=O)c1ccc(C)c(Cl)c1` was run?
The value was -0.528.

Which “delta PSI of alternative exon” value does the source give for `COc1cc(/C=C/C(=O)N2CCC=CC2=O)cc(OC)c1OC` [Piperlongumine] here?
Its value is 1.36.

`COCCCNC(=S)N/N=C/c1cccc(OC)c1O` was tested. Which “delta PSI of alternative exon” value did it give?
The value was 2.73.

`CC1(c2ccc([N+](=O)[O-])cc2)NN=C(c2ccccc2)S1` (stereo not given) was tested. Which “delta PSI of alternative exon” value did it give?
The value was 1.09.

How did the “delta PSI of alternative exon” value turn out when `CCOC(=O)c1cnn2c1nc(N1CCCC1)c1ccccc12` was run?
The value was -0.738.

Which “delta PSI of alternative exon” value does the source give for `O=C1OC(CC(=O)c2csc3ccccc23)c2ccccc21` (stereo not given) here?
The value was -0.926.

`O=C(Nc1ccc(-n2nc(C(F)(F)F)cc2-c2cccs2)cc1)c1cccs1` was tested. Which “delta PSI of alternative exon” value did it give?
Its value is 0.29.

With `CCCCc1nc2cc(/C=C/C(=O)NO)ccc2n1CCN(CC)CC` as the compound, how does the “delta PSI of alternative exon” value read?
The value was 16.3.

Which “delta PSI of alternative exon” value does the source give for `O=C(Nc1ccc2[nH]nc(-c3ccncc3)c2c1)[C@@H]1CCN(CC(=O)N2CCN(c3ccc(-c4ncccn4)cc3)CC2)C1` here?
The value was 2.92.

`O=C(C=C(C(=O)c1ccccc1)c1ccccc1)c1ccc2c(c1)OCCO2` was tested. Which “delta PSI of alternative exon” value did it give?
Its value is -2.02.

For `Oc1nc2ccccc2nc1-c1c[nH]c2ccccc12`, which “delta PSI of alternative exon” value is on record?
The value was 1.88.

How did the “delta PSI of alternative exon” value turn out when `CC(=O)Nc1ccc([C@H](C)C(=O)Nc2ncc(C(C)C)s2)cc1` was run?
Its value is -18.2.

How did the “delta PSI of alternative exon” value turn out when `COc1ccc(C=C2CCCc3ccccc3C2=O)cc1` was run?
The value was -4.04.

With `COc1cc2ncn(-c3cc(OCc4ccccc4C(F)(F)F)c(C(N)=O)s3)c2cc1OC` as the compound, how does the “delta PSI of alternative exon” value read?
The value was -2.92.

How did the “delta PSI of alternative exon” value turn out when `CC1=C(/C=C/C(C)=C/C=C/C(C)=C/C(=O)Nc2ccc(O)cc2)C(C)(C)CCC1` [Fenretinide] was run?
The value was -3.27.

Which “delta PSI of alternative exon” value does the source give for `Cc1onc(-c2ccccc2)c1C(=O)Nc1c(C(C)(C)C)nn(C)c1C(C)(C)C` here?
Its value is -0.671.
